Read counts are not given, so values of variants with three or more changes are uncertain.

To fix the notation:
B1: LINE1-mini (parent)
chain: GGCAGAGCUCAACACAGCGUGGCAAAGUGGCUGUGGCUAGACUGCC

Variants of B1 are the subject of this series. The series is described as follows: self-cleavage, relative activity (ratio to wild type); higher = more cleavage; in vitro, sequencing; the parent is a self-cleaving ribozyme.
For the variant GGCGGAGCUCAACACAACGUGGCAGAUUGGCUGUGGCUAGACUGCC, the self-cleavage was determined as 0.11.
Then GGCGGAGCUCAACACAGCGUGGGGAAGUGGCUGUGGCUAUACUGCC, with 0.07.
For the variant GGCGGAGCUCAACAUAGCGUCGCAAGGUGGCUGUGGCUAGACUGCC, the self-cleavage came to 0.49.
Then GGCGGAGCUCAACACAGCGUCCCAAAGUGGCUGUGGCUAGAUUGCC, with 0.04; and GGCGGAGCUCAAGACACCGAGCCAAAGUGGCUAUGAAUAGACUGCC, with 0.02; and GGCGGAGCUCAACACAGCGUGGCAAAGUGGUUGUGGGUAGAAUGCC, with 0.1.
For GGCGGAGCUCAACACAGCGUGCCAAAGAGGCUGUGGCGAGACGGAC, the self-cleavage came out at 0.
Then GGCGGAGCUCAACACAGCGUGUCAAAGUGGCUGUGGCUACACUGCC, with 0.42.
Consider GGCGGAGCUCAACACAGCGUGGCAAAGUGGCUAUGGCUAGACUAGC, for which the self-cleavage came out at 0.12.
As to GGCGAAGCUCAACACAGCGUGGCAAACUGGCAGUGGCUAGACUGCC, the self-cleavage was determined as 0.05.
GGCGGAGCUUAACACAGCGUGGCACAGUGGAUGGGGCUAGACUGCC: the self-cleavage turned out to be 0.05.
In the case of GGCGAAGUUCAACAGCGCGUGGCAAAGUGGCUGGAGCUAGACUGCC, the self-cleavage amounted to 0.03.
Then GGCGGAGCUCAACAAAGCGUGGCAAAGUGGCUGUGGCUAGACGGCC, with 0; and GGCGGAGCUAAACACAGCGAGGCAAAGUGGCUGUGGCUAGACUGCC, with 0.06; and GGCGGAGCUGAACACGGCGUUGCAAAGUGGCUGUGGCUAGACUGCC, with 0.04.
Consider GGCGGAGCUCAACACAGCGUGGAAAAGUGGUUGUGGCUAGACUGCC, for which the self-cleavage is 0.14.
Take GGCGUAGCUCAACACAGCGUGGCAAAGUGGCUGUGGCUAGACUUCC: the self-cleavage amounted to 0.06.
Consider GGCGGAUCUCAACACAGCGUGGCAAAGUGGCUGGGGCUAGACUACC, for which the self-cleavage turned out to be 0.37.
Then GGCGGAGCUCAACACAGCGUGGCAAAUUGGGUGUGGUUAGACUGCC, with 0.07; and GGCGGAGCUCAACACACCGUGGCAAAGUGGCUGUGGCUAGAGUGCC, with 0.06; and GGCGGAGCUCAACACAGCGUGGCAAAGUGGUUGUGGCUUGACUGCC, with 0.03.
Then GGCGGAGCUCAACACAGCGUGGCAAAGUGGCUUUGGCUAGUCUGCC, with 0.19; and GGCGGACCUCUACACGGCGUGGAAAAGUGGUUGUGGCUAGACUGCC, with 0.01; and GGCGGAGCUCAACACAGGGUGGCAAAGAGGCUGUGCCUAGACAGCC, with 0.04.
Regarding GGCGGAGCUCAACACAGCGUGGAAAAACGGCUGUGGCUAGACUGCU, the self-cleavage stood at 0.15.
Then GGCGGAGCUCAACACAGAGUGGUAAAGUGGCUGUGUCUAGACUGCC, with 0.01.
Regarding GGCGGAGCUCAAGAGAGCGUGGCAAAGUGGUUGUGGCUAGACUGCC, the self-cleavage was 0.01.
Turning to GGCGGAGCUCAAUACACAGUGGCAAAGUGGCUGUGGCUAGACUGCC, the self-cleavage is 0.1.
Then GGCGGAGCUCAACAAAGAGUGGCAAAGUGGCUGUGGCUAGACUGCC, with 0.04; and GGCGGAGCUCAACACAGCGUCGCAAACUGGCUGUGGCUAGACUACC, with 0.03.
In the case of GGCGGAGCUCAACAAAGCGUGGCAAAGUGGAUGUAGCUAGACUGCA, the self-cleavage came to 0.06.
Turning to GGCGGAGCUCAACACAGCGUGGCAAAGUAGAUGUGGCUAGUCUGCC, the self-cleavage was 0.07.
As for GGCGCAACUCAACACAGAGUGGCAAAGUGGCUGUGGCUAGACUGCC, the figure is 0.06; as for GGCGGAGCUCAAUACCGCGUGGCAAAGUGGCUGUGGCUAGACUGCC, 0.26.
Then GGCGGAGCUCAACACAGCCUGGCAACGUGGCUCUGGCAAGACUGCC, with 0.06.
For the variant GGCGGAGCUCAACACAGCGUGGCAAAGUAGCUGAGGCUAUACUGCC, the self-cleavage came out at 0.14.
Then GGCGGAGCUAAACAUAGCGUGGCAAAGUGGCUGUGGCUAGACUGCC, with 0.02; and GGCGGAGCUCAACACAGCGUGGAAUAGUGCCUGUGGCUAGACUGCC, with 0.6.
As for GGCGGAGCUCAACACAGCUUGGCAAAGUGGCAGUGGUUAGACUACC, the figure is 0.26; as for GGCGGAGCUCAACACAUCGUGACAAAGUGGCUUUGGCUACCCUGCC, 0.03.
As for GGCGGAGCUCAACACAACGUGACAAAGUGGAUGUGGUUAGACUGCC, the figure is 0.07; as for GGCGAAGAUCAACACAGCGUGGCAAAGUGGCUGUGGCUAGAAUGCC, 0.41; as for GGCGAAGCUCAACACAGCGUGGGGAAGUGGCUGUGGCUAGACUGCC, 0.23.
As to GGCGGAUCUCAACACAGCGUGGCAAAGUGGCUGUGGCUAGACUCCC, the self-cleavage stood at 0.06.
As for GGCGGAGCUCAACACAGCGUGGAAAAGUGGCUGUGGCUAGUCUGCC, the figure is 0.5; as for GGCGGAGCUCAACACAGCGUGGCAAAGUUGCUGUGGCUAGACUUCC, 0.66; as for GGCGGAGCUCAAGACAGCGUGGCAAAGUGACUGUGGCGAGACUGCC, 0.02.
As for GGCGUAGCUCGACACAGCGUGGCAAAGUGGCUGUGGCUAGACUGCC, the self-cleavage was found to be 0.
As to GGCGGAGCUUAACACAGCGUGGCAAAGUAGCUGUGGCCAGUCUGCC, the self-cleavage worked out at 0.04.
As for GGCGGAGCUCAACAAAGCGUGGCAAAGUGGCUGUUGCUAGACUGCG, the figure is 0.04.
Then GGCGGAGCUAAACACAGCGAGGCAAAGUGGCUGUGGUUAGACUGCC, with 0.02; and GGCGAAGCUCAACACAGCGUGGCAAAUUGGCUCUGGCUAGAUUGCA, with 0.01; and GGCGUAGCUCAACACAGCGUGGCAAAGUGGCUAUGGCUAGACUGCC, with 0.03.
Then GGCGUAGCUCAACACAGCGUGGCAAAGUCGCUGUGGCUAGACUGCC, with 0.01.
Consider GGCGGAGCUCAACACAGCGUGGCAAAAUGGCUGUGGCUAGAUAGCC, for which the self-cleavage is 0.27.
Then GGCGAAGCUCAACACGGCGUGGCAAAGUGGCUGUGGCUAAACCGCC, with 0.01.

For the origin of these results see the RNAGym collection of RNA variant scans (doi:10.7554/elife.90254).
